PubChem BioAssay (NCATS)
The inconclusive results got no clear call from the source; some entries with a clear call stand among them for comparison. For some assays here: Potencies of inconclusive entries are doubtful fits and often do not repeat. Calls of active or inactive are those of the source. Unless noted, calls follow the shape of the dose curve; as a rule, active = well fitted curve in the direction sought with a large enough effect; inconclusive = small, poorly fitted or top-dose-only effect, or another doubt; inactive = no such curve, though single readings can be large; an effect the other way counts as inactive or inconclusive.

Key:
[1] = Cell Viability - Hek293 (AID 427;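 active = compounds whose dose-response curve shows a full or clear partial loss of cell viability, called from curve shape rather than a numeric limit; inconclusive = weak partial curves or an effect only at the top dose; inactive = no dose-dependent loss of viability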;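 also: potency is read from the fitted curve at half-maximal effect; cells exposed to compound for 40 hours at 37 °C before reading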); details: qHTS
How it was run: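 HEK293 cells in complete medium were exposed to compound for 40 hr at 37 °C, then cellular ATP was read by CellTiter-Glo luminescence. Data were normalized to DMSO (basal) and 100 uM tamoxifen (100% inhibition), and AC50 came from Hill fits.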

[2] = Cell Viability - HepG2 (AID 433; calls by dose curve;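 also: potency is read from the fitted curve at half-maximal effect; potency for ATP loss meaning cytotoxicity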); details: qHTS
How it was run: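 Read-out is luciferase-based quantitation of cellular ATP as a measure of viable HepG2 cells after 40 h treatment at 37 °C. Signal decrease is scaled between DMSO-only and 100 uM tamoxifen controls, with AC50 fitted by the Hill equation.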

[3] = Cell Viability - SK-N-SH (AID 435; calls by dose curve;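 also: potency is read from the fitted curve at half-maximal effect; compound exposure lasted 40 h at 37 °C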); details: SK-N-SH neuroblastoma cell viability qHTS
How it was run: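 Luminescent ATP signal served as the viability read-out after 40 hours of compound treatment of human neuroblastoma SK-N-SH cells. Concentration-response data, scaled between DMSO and 100 uM tamoxifen, gave AC50 values by standard Hill modeling.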

[4] = biological target: Mitogen-activated protein kinase 10 (Mus musculus) (UniProt Q61831); test: JNK3 AlphaScreen Assay (AID 530; active = well fitted curve in either direction with a large enough effect, not every such curve was filed as active; inconclusive = small, poorly fitted or top-dose-only effect, or another doubt;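 also: kinase came from lysate of stimulated human HepG2 cells; signal reports phosphorylation of biotinylated GST-cJun 1-79 at Ser73 with 10 µM ATP; potency is read from the fitted curve at half-maximal effect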); details: JNK3 lysate, c-Jun phosphorylation; activity change, negative = inhibition: at 57.1 µM (top of the series)
How it was run: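 qHTS format: compounds tested as titrations against IL-1beta/TNF-alpha-activated HepG2 lysate JNK3 with biotin-GST-cJun substrate and 10 uM ATP at room temperature. Loss of anti-phospho-cJun AlphaScreen signal indicates inhibition.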

[5] = Cell Viability - HUV-EC-C (AID 542); details: HUV-EC-C endothelial cell viability, qHTS; series mostly up to 92.2 µM; also: potency is read from the fitted curve at half-maximal effect; nearly all actives have a fitted effect of over 35% in size
How it was run: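 Decrease in cellular ATP, quantified by luciferase luminescence, reflects toxicity in normal human vascular endothelial HUV-EC-C cells given compound for 40 hr in complete culture medium. Values are AC50s from concentration-response curves.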

[6] = Cell Viability - Mesenchymal (AID 546); details: mesenchymal cells viability, qHTS; activity change, negative = cytotoxicity: at 91.7 µM (top of the series);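 also: cells exposed to compound for 40 hours before reading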
How it was run: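 Human kidney mesenchymal cells from normal renal glomeruli, 1000 cells/well, rested 5 hr at 37 °C, then treated 40 hr at 37 °C in complete medium. Cellular ATP read by CellTiter-Glo luminescence; AC50 from Hill-equation fits.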

[7] = Cellular Toxicity (caspase-3) Jurkat (AID 655); details: Jurkat caspase-3 activation, luminescence; caspase-3 activation: at 92.2 µM (top of the series), DMSO = 0%, tamoxifen = 100%;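 also: cells exposed to compound for 16 h at 37 °C before reading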
How it was run: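 5000 Jurkat cells/well; compound 16 hr, 37 °C; Caspase-Glo 3/7 added, 20 min RT; luminescence read. Norm: DMSO = 0%, tamoxifen 100 uM = 100%. AC50, Hill model.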

[8] = Cellular Toxicity (caspase-3) HUV-EC-C (AID 656); details: HUV-EC-C cells, caspase-3 activation (apoptosis); series mostly up to 92.2 µM; also: potency is read from the fitted curve at half-maximal effect
How it was run: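 qHTS; HUV-EC-C, 1000 cells/well; 5 hr settle, 16 hr cmpd, 37°C; Caspase-Glo 3/7, 20 min RT; luminescence. Norm: DMSO = 0%, tamoxifen 100 uM = 100%. Hill-fit AC50.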

[9] = Cellular Toxicity (caspase-3) SHSY5Y (AID 657); details: SH-SY5Y caspase-3 activation; series mostly up to 91.7 µM; also: potency is read from the fitted curve at half-maximal effect
How it was run: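 qHTS, SH-SY5Y, 1500 cells/well, 5 h pre-incubation 37 °C; compound 16 h 37 °C; Caspase-Glo 3/7 1 h RT; luminescence. Norm.: DMSO = 0, 10 uM staurosporine = 100%. Hill fit → AC50.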

[10] = Cellular Toxicity (caspase-3) BJ (AID 658); details: BJ fibroblasts, caspase-3 activation, luminescence; also: potency is read from the fitted curve at half-maximal effect
How it was run: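 BJ human foreskin fibroblasts, 1000 cells/well, treated 16 hours at 37 °C in complete medium; caspase 3/7 activity by Caspase-Glo luminescence after 1 hr at room temperature. Normalized to DMSO and 10 uM staurosporine; AC50 from Hill fits.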

[11] = Cellular Toxicity (caspase-3) MRC-5 (AID 659); details: MRC-5 cells, luminescence; Potency: caspase-3 activation; series mostly up to 91.7 µM; also: potency is read from the fitted curve at half-maximal effect
How it was run: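 MRC-5 human normal lung fibroblasts, 1500 cells/well, treated 16 h at 37 °C in complete medium. Caspase 3/7 measured by Caspase-Glo luminescence after 1 h at room temperature. Normalized to DMSO and 10 uM staurosporine; AC50 from Hill fit.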

[12] = Cellular Toxicity (caspase-3) Mesangial (AID 660); details: mesangial cells, normalized: DMSO 0%, 100 µM tamoxifen 100%; at 91.7 µM (top of the series);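 also: combined caspase 3 and 7 activity read by Caspase-Glo luminescence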
How it was run: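 Concentration-response qHTS: compound-induced rise in caspase 3/7 luminescence in human mesangial cells after 16 h, normalized to DMSO and 100 uM tamoxifen controls.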

[13] = Cellular Toxicity (caspase-3) SK-N-SH (AID 661); details: SK-N-SH caspase-3 activation, qHTS; caspase-3 activation: at 91.7 µM (top of the series), DMSO as zero, staurosporine as full; also: potency is read from the fitted curve at half-maximal effect
How it was run: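 Caspase 3/7 activation is measured as a luminescence increase from aminoluciferin released by substrate cleavage in SK-N-SH cells after 16 hr compound treatment; values are AC50 from concentration-response curves.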

[14] = Cellular Toxicity (caspase-3) H-4-II-E (AID 663); details: H-4-II-E rat hepatoma; Potency: caspase-3 activation; caspase-3 activation: at 92.2 µM (top of the series), scaled: DMSO 0%, 100 µM tamoxifen 100%;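 also: cells exposed to compound for 16 hr before readout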
How it was run: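 Rat hepatoma H-4-II-E cells (1500/well) plated 5 hr, then exposed to compound titrations for 16 hr at 37 °C. Caspase-Glo 3/7 luminescence read after 20 min at RT; data normalized to DMSO and 100 uM tamoxifen, AC50 from Hill fits.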

[15] = Cellular Toxicity (caspase-3) NIH 3T3 (AID 666); details: NIH 3T3 caspase-3 activation, apoptosis/toxicity;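 also: potency is read from the fitted curve at half-maximal effect; caspase signal read after 16 h compound exposure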
How it was run: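 Concentration-response qHTS in NIH 3T3 mouse fibroblasts scores caspase-3/7 activation as rising luminescence after 16 hr compound exposure. Signals are scaled between DMSO-only and 100 uM tamoxifen.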

[16] = Cell Viability - LYMP1-002 - Assay at 24 hr (AID 993); details: LYMP1-002 lymphoblastoid cells viability; series mostly up to 92.2 µM; also: % is scaled to controls: 0 for no effect and ±100 for the full control effect
How it was run: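 qHTS, LYMP1-002 lymphoblastoid, 24 h cpd, 37 C, CellTiter-Glo ATP luminescence; AC50 via Hill eq.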

[17] = biological target: Thyroid hormone receptor beta (Homo sapiens) (UniProt P10828); test: qHTS assay for small molecule agonists of thyroid hormone receptor beta signaling (AID 588545; calls by dose curve;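 also: 0% = DMSO only and 100% = 10 nM T3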); details: TR-UAS-bla GripTite HEK 293, beta-lactamase ratio, agonist mode, 18 h; activation: at 76.7 µM, percent of T3 response, DMSO as zero
How it was run: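 Compounds were tested as agonists in TR-UAS-bla-GripTite HEK 293 cells. After 18 hrs at 37 C, CCF4 substrate was added and fluorescence read after 2 hrs at room temperature.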

[18] = qHTS assay for small molecule disruptors of the mitochondrial membrane potential - 1 hr assay (AID 651754; calls by dose curve; also: % is scaled to controls: 0 for no effect and ±100 for the full control effect; nearly all actives have a fitted effect of over 35% in size); details: ratio change, negative = depolarisation: at 92.2 µM (top of the series)
How it was run: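 Steps: seed HepG2 cells and let attach overnight; pin-transfer compound or vehicle; incubate 1 hr at 37C; add Mito-MPS dye for 30 min; read two-channel fluorescence for monomer and aggregate forms.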

[19] = qHTS assay for cell viability of HEK293 cells (AID 743288); details: ATP luminescence (CellTiter-Glo), 18 h; max response: active compounds read low; also: potency is read from the fitted curve at half-maximal effect; nearly all actives have a fitted effect of over 50% in size
How it was run: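 HEK293 parental, 2,000 cells/well; ≥5 h pre-incubation 37 C; pintool compound addition; 18 h, 37 C; CellTiter-Glo 30 min RT; luminescence read.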

[20] = qHTS assay for cell viability of the p53RE-bla HCT-116 cell line (AID 743292); details: p53RE-bla HCT-116 viability, ATP luminescence, 16 h; series mostly up to 95 µM; also: potency is read from the fitted curve at half-maximal effect; nearly all actives have a fitted effect of over 55% in size
How it was run: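 Viability of compound-treated p53RE-bla HCT-116 cells is taken from ATP-dependent luciferase luminescence. Treatment lasts 16 h at 37 C after a 5 h settling period; detection follows 30 min at room temperature.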
Tags tell the direction and shape of the fitted curve.

Chain of UniProt P10828 (P10828 whole entry, looked up): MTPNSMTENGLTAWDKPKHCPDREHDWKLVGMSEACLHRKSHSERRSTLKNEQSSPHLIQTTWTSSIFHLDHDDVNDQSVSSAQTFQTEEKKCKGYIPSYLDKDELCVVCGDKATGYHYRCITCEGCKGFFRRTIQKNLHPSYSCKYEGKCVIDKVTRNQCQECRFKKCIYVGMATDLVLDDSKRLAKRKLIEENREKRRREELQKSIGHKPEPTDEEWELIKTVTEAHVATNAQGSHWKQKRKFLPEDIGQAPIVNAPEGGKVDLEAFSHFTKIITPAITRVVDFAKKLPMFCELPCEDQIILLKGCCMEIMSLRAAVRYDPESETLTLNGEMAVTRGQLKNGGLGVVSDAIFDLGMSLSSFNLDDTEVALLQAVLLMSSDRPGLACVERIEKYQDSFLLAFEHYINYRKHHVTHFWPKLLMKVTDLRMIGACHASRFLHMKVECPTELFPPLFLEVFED

c1cc(OCC2CO2)cc(OCC2CO2)c1 (stereo not given)
inactive: Potency [16]
active: Potency [1] 32.9 µM | Potency [3] 9.23 µM | Potency [13] 12.6 µM
inconclusive: Potency [2] 91.7 µM [single point] | Potency [4] 0.001 µM [activator, full curve, poor fit] | Potency [5] 39.8 µM [falling, partial curve] | activity change, negative = cytotoxicity [6] -74.3% | caspase-3 activation [7] -2.37% | Potency [8] 79.4 µM [rising, single point] | Potency [9] 10 µM [rising, partial curve] | Potency [10] 31.6 µM [rising, single point] | Potency [11] 31.6 µM [rising, single point] | caspase-3 activation [12] 31% | caspase-3 activation [14] -2.72% | Potency [15] 79.4 µM [rising, single point] | activation [17] -48.7% | ratio change, negative = depolarisation [18] 0.447% | Potency [19] 56.2 µM [cytotoxic, single point] | Potency [20] 50.1 µM [cytotoxic, single point]
